Measurements taken from the supplement of paper PMC11417369.
This is one part of the list.

Tested on: PfAP2-HC AP2 domain (GST-tagged)
Test: gcPBM binding intensity (ln(normalized median fluorescence intensity)); higher = stronger DNA binding
In short: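 Each value is the highest Masliner-normalised natural-log median intensity across replicate spots of either orientation of a probe. The probes were primer-extended double-stranded 36-bp intergenic genomic sequences on an Agilent 4 × 180k array, alongside negative controls, exposed for 1 h to GST-tagged P. falciparum DNA-binding domains expressed in E. coli. Bound protein was picked up with Alexa488 anti-GST antibody and scanned at 488 nm.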

Sequence	gcPBM binding intensity (ln)
TAATATTAAATAAATAAAATATATAATATATATATA [XGTACX_negctrl_site49]	9.43
TAATATATAACGTGCACACACACATCTACGTATGAA [CACACA_site5080]	10.3
CAATGTTAACATATTACACACATATGTATTTATAAT [CACACA_site5512]	9.86
GCATATATTATATATTTATTTATTTTTTTTTTTTAA [GTGCAC_negctrl_site193]	9.44
AATAAAGGAAATAAATAATTTATTTTGTAAAATATG [CACACA_negctrl_site97]	9.53
ATATATATGAATACATGTACGTATTTGTCTATGTAT [XGTACX_site8306]	9.81
AAAATATTTATATTTACACACACATAATACATATAT [CACACA_site32]	10.5
GTGTACAGTTTTTGCACACATATAAATAAAAAAAAG [CACACA_site3599]	9.9
TAAATTACATGAAATTGTACATGAATATTAAATATA [XGTACX_site3909]	9.34
ATATATACAAAGGATTAACACACATATTATTATATA [CACACA_site8563]	9.77
TTCGTTATAATTGAATTTACAATATGCTTTATAATG [XGTACX_negctrl_site238]	9.6
ATGTTACTCAGACACACACACATAAAAAAACAAAAA [CACACA_site3249]	10.4
TGTGTTAATATATGAAGTACACAATACACACTAATT [XGTACX_site5469]	9.84
AAATAAAATTATAATACATGCATACATACATATATA [TGCATGCA_site69]	9.67
TCATATGTTAAATGATGTACATTTAATATAAATAAA [XGTACX_site900]	9.3
AAAAAAAACATCCTCACACATATATATATATATATA [CACACA_site5166]	9.65
TAATATCATTTATGGGGTACCTCCTATTCTTATTTA [XGTACX_site1839]	9.64
CGAACTGCACTTTTTAGTACTTAATAATTATTTTTT [XGTACX_site2446]	9.86
TATACATCATTTTTCAACAACAAAAAAAAAAAAAAT [CACACA_negctrl_site1185]	9.44
ATATATATAAATACAACACACATGTAATATATAAAT [CACACA_site5766]	10.2
ACGTAAAATAGGGACGCATGCACAAATATTTTTAAA [TGCATGCA_site336]	9.72
TAATAATTACAAAGAAGTACATAAAAAAAAATTTAT [XGTACX_site4684]	9.55

Sequence	gcPBM binding intensity (ln)
CTATATATATATTTCAGTACATATTAAGAATATATA [XGTACX_site4860]	9.41
TTCTAATAAATGTGTTGTACACCTTTAGCAACTATT [XGTACX_site3235]	9.73
TATATAAATATATACACACATACATACATACATATA [CACACA_site3835]	10
TATATATATTTATGCACACAAAATATATTATATAAT [CACACA_site5955]	9.67
AGGAAAAAAGAAAAAACACACATAAATATTTATATA [CACACA_site7446]	9.65
TTATTTATTTATTGTTGTACACAAAATGATTCTTAA [XGTACX_site6480]	9.48
AAACAAAACAAAACATGTACACATTATATATATATA [XGTACX_site3374]	9.86
TAAATACTTCGTAAAACACACAAGTAGAAAAAAAAA [CACACA_site360]	9.84
ATTAATTATATATATACACACACATACACCCAAATA [CACACA_site9126]	10.3
AAAAATATAATATATGCACACATACATACATATATA [CACACA_site7915]	9.78
CATTAACAAATAAATGCACACATATATATAAATAAT [CACACA_site7892]	9.86
AATTTATTAGATAGATGTACATTTTAATAAAAGTAG [XGTACX_site6819]	9.66
TAAAAATTAAAACTGGGTACAAATTTATAGATAGCC [XGTACX_site8075]	9.91
TCCCCTTAATTTAAAACACACAAACAAATAAGTTAG [CACACA_site5973]	9.66
TTTACATTTATGTGCACACATTCCATTTGAAAGTAA [CACACA_site1953]	9.7
AATATTTTTTTTTAAACATGCATATTTGCATTACCC [TGCATGCA_site437]	9.55
TGTATATATTTTAATAGTACTCATATATATATATAT [XGTACX_site7216]	9.73
ATAACTTTCTATACATGTACACATATATGGTATTTT [XGTACX_site7535]	9.94
ATAAATTTTTTATGAACACACAAATACACCCACTCA [CACACA_site5465]	10.7
CTTATAAAAAAAATTGCACACATATTATACAGGACG [CACACA_site8133]	9.92
ATTGTGTTGACGGGTGACCCTTCCAGAGAAATAGAA [CACACA_negctrl_site1362]	9.49
TTTTTTTTAATGAGAAGTACGGTCTTTCAATGTCTT [XGTACX_site6773]	9.31

Sequence	gcPBM binding intensity (ln)
ATATAAATAAATATATGTACACACACAAATATATAC [XGTACX_site3950]	10.2
TCTTTCTTATTTTAATGATATTTATTCATTCCAGTT [CACACA_negctrl_site1679]	9.81
ACTTTTACACTTTGATTGCACTACTAAACCAGTTCA	9.79
AGAATTATTCTAAAAACACACAATACAAAAGTGCAT [CACACA_site3004]	9.73
ATAAAAAAAAATATTTGTACACATATTTATATATTA [XGTACX_site8147]	9.6
AAAAAACACGCGCACACACACACACGCGCCCACATA [CACACA_site7106]	11.1
AATACTAAAACCCATACACACACATATATATAGTAC [CACACA_site9041]	11
TCTTTCAATATTAATGCATGTTAATAATAAATTTTA [TGCATGCA_site448]	9.4
ATATGTTTTTTTTTTTTTTTTTAATTTGTCATAAAT [CACACA_negctrl_site1208]	9.55
TGAACAATATATAATAGTACATATTTATTTTTTTCT [XGTACX_site4256]	9.5
TAAAGATGAAATATCACACATATATAAATATATAAA [CACACA_site4580]	9.68
AATTAAATTACTTATACACACATAAAATGGGTGTAT [CACACA_site4703]	9.74
AAAAAAAAAAAAAAGCGTACAAATAAAATATATTTA [XGTACX_site7195]	9.48
CGTATATATAAATACACACACATATATATCTGTAAA [CACACA_site4272]	9.98
TTAATTTATTTATGCACACATATATAATTACCCATA [CACACA_site682]	9.78
TTTTTATATGCGTATTGTACATTATACATATATATA [XGTACX_site6786]	9.66
TAAATGTCCTTATTTGCACACACACCCATAAGAAAT [CACACA_site3185]	10.8
CCTTTTTTGTTTTATGCACACCATATAACCAAGGCT [CACACA_site7893]	9.88
TATATATAAAAATATACACACACAAATGTATATATA [CACACA_site7956]	10.2
ATGTAATGAAACATTGCACACATATAATAATATAAT [CACACA_site8402]	10.2
ATGATGTGCAAGAGTAGTACACAATTTTGGGTTTAT [XGTACX_site501]	9.73
AAACATAAGAAACACACACACATATATATATATATA [CACACA_site3642]	10.4

Sequence	gcPBM binding intensity (ln)
AAAAAAAAATCAAAATGTACTTATTTTTATAATAAT [XGTACX_site4712]	9.5
AACATCAATTTATTTTCTTACATTATACGATTCATG [CACACA_negctrl_site1300]	9.55
AGAATATCAAAATAAAGTACATTTATTATATATATG [XGTACX_site7100]	9.56
TTTTCTCTCAAAAAATGTACATAATATATATATTTT [XGTACX_site4861]	9.69
AAAAAAAAAAAACATACACACATACATACCTATATA [CACACA_site6575]	10.3
ATTCTTATAACAAGAAGTACAAATATATGTATATAT [XGTACX_site4528]	9.5
TTTTTTTTTTTTTAAACATGCATAATAAATATAATA [TGCATGCA_site265]	9.28
TTTTTTATTTTGTGCACACACATAAAAATATATATA [CACACA_site761]	9.86
TTGTTTTCTTATTATTACTACAATACTTAAGTCAGA [TGCATGCA_negctrl_site184]	9.5
TAATCATAACTTGATACGCACACGTTATATAAATAA [CACACA_site1579]	9.61
TATTTATTTATGGACACACATACAAATCTTCCAGAC [CACACA_site942]	9.96
TTTTGTTGGATACAAAAATTACAAATTATTTAAAAA [TGCATGCA_negctrl_site532]	9.3
TTTTTTATTTTAAAAACATGCATAAAATATAATAGT [TGCATGCA_site762]	9.34
AGATAAAAAAAGTACACACACACATATATTTATATA [CACACA_site7437]	10.9
TATATATTTAATTTCACACATATATATAATTATTAT [CACACA_site4936]	9.71
ATACACACTTAAAAAAGTACTTAACTACATGAATTG [XGTACX_site1203]	9.78
ATATTATATATAAAATGTACATTTAAAAATATTATA [XGTACX_site889]	9.67
TATCATAAAAAATATACACACAAAGGATATTTATAT [CACACA_site6841]	9.79
TATGAACACCAACACACACACAAAAAAAAAAAAAAA [CACACA_site2013]	10.2
GAATACATAATAACATGTACACACATTCTTCTATAA [XGTACX_site8725]	9.82
TATATATATAGAAATGCATGTTAATAAAAGTTATAA [TGCATGCA_site947]	9.85
TACGTAAAATAATTGAGTACATAATTATATATATAT [XGTACX_site5361]	9.6
